The text below walks through data of the supplement of paper PMC11417369.

± gives the standard deviation of the averaged measurements. Some of the results follow.

In the assay the test system is PfAP2-LT AP2 domain (GST-tagged). In words: gcPBM binding intensity (ln(normalized median fluorescence intensity)); higher = stronger DNA binding. The essentials: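 An Agilent 4 × 180k array carrying primer-extended double-stranded 36-bp intergenic genomic probes and negative controls received GST-tagged P. falciparum DNA-binding domains expressed in E. coli, about 25 μg on average, for 1 h. The binding buffer contained 1× PBS, 1% milk, 0.2 mg/ml BSA, 0.5% salmon testes DNA and 0.03% Triton X-100. Binding intensity is the top Masliner-normalised natural-log median intensity across replicate spots of either probe orientation, read after Alexa488 anti-GST antibody staining and a 488 nm scan.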
As for “AAAAAAAAAAAAAACATACACACAATAAAATAGGGG [CACACA_site2398]”, the “gcPBM binding intensity (ln)” value was 9.32 ± 0.099. Under “ATTTTTTTTTTTTTTTTTTTTTTATTCTTGTAATCT [CACACA_negctrl_site1039]” stands 8.65 ± 0.64; under “ATATAATAATAAAGACGTACAAATGTATATATATAC [XGTACX_site3123]”, 9.2 ± 0.35. As for “ATGTAAGTTGTGCATTCACACACATATATATATATA [CACACA_site9086]”, the figure is 9.73 ± 0.28; as for CCTTTTTATCTTTTTGTGCACAGACCTTTTTTAAAT, 9.48 ± 0.28.

Regarding “TAAAAATTATATATCACACATATATGTCAGTATACA [CACACA_site4624]”, the “gcPBM binding intensity (ln)” value came to 8.87 ± 0.48. As for “ATTTATATGTGGAGCAGTACGCACTCTCACAATTAA [XGTACX_site7252]”, the “gcPBM binding intensity (ln)” value is 8.7 ± 0.38. As for “TAATATATGTATATATGTACATATAAATGTTATAGA [XGTACX_site2721]”, the figure is 8.78 ± 0.43. As for “TTGGTATAAAATTATAGTACATAAGGTAAATATAAA [XGTACX_site4698]”, the figure is 8.74 ± 0.52; as for “GATGTTCATCACTACACACACAAAGAAATATATATA [CACACA_site2684]”, 9.42 ± 0.42; as for “AAAGAAAAAAAATATAAAAAATAAAAAATAAAACAA [CACACA_negctrl_site374]”, 8.56 ± 0.8.

On to “TTGTATTTCCTTAGGAGTACACATAAATAAGTAAAT [XGTACX_site6677]”, for which the “gcPBM binding intensity (ln)” value worked out at 8.56 ± 0.41.

In the case of “GTAAAATATATAAAATGTACATATATTATATATATA [XGTACX_site489]”, the “gcPBM binding intensity (ln)” value was determined as 8.77 ± 0.38.

With “CATTTAAAAGATAAAACACACATACTAATAAAAAAC [CACACA_site5417]”, the “gcPBM binding intensity (ln)” value was 8.98 ± 0.43.

Regarding “TTTCTTTATTAAAATATTTTACATATATAATATACG [TGCATGCA_negctrl_site564]”, the “gcPBM binding intensity (ln)” value is 8.62 ± 0.54. Under “CTTCTCTTTTTTATCATGCACTTTTTGTATAATAAT [GTGCAC_site9834]” stands 8.86 ± 0.38; under “ACATATATTATTATATGTACATATATTAATTATATA [XGTACX_site3400]”, 8.66 ± 0.28; under “ATCATTTTTAAAGGAACACACAAAAAAAATTAAAAT [CACACA_site4878]”, 8.72 ± 0.57. Under “ACTCTCTTATATTAAACACACATATATATCTGTATA [CACACA_site5489]” stands 9.24 ± 0.35.

Turning to “AAAAAATCACGACACACACACACACTAAAAAAAAAA [CACACA_site6792]”, the “gcPBM binding intensity (ln)” value came to 10.1 ± 0.2.

In the case of “ATTTTTTGGAAAAGAAGTACAATGGATTTATACGTT [XGTACX_site891]”, the “gcPBM binding intensity (ln)” value came out at 8.55 ± 0.48. Regarding “ATCAAATAATAGCAAACACACAAAAAATAAAAAAAA [CACACA_site4146]”, the “gcPBM binding intensity (ln)” value came out at 9.04 ± 0.47.

In the case of “AATGTTTTTTTTTTTTTTTTTTTTTATTTATTGTTA [CACACA_negctrl_site505]”, the “gcPBM binding intensity (ln)” value came to 8.65 ± 0.47. Under “TAACATATAATATTATGTACATATATACATATATAA [XGTACX_site7467]” stands 8.58 ± 0.37; under “TATTTCAATATATACCTTTGCTTTTTTAATATACTT [XGTACX_negctrl_site556]”, 8.62 ± 0.53.
